# In the supplement of paper PMC12889115:
# Some of the results follow. Single values are uncertain, as repeats are few or missing.
# Tested on: Salmonella enterica serovar Typhimurium SL1344
# Experiment: bacterial growth OD600 after 18 h in MHB with 0.5 µg/mL polymyxin B; higher = more bacterial growth (less inhibition)
# Conditions: 25 µM; polymyxin B 0.5 µg/mL; system: broth
# Procedure: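 Secondary screen of the 553 primary hits at 25 µM. (i) S. Typhimurium SL1344 grown in Mueller-Hinton broth with 0.5 µg/mL polymyxin B, OD600 read after 18 h. (ii) SAFIRE assay: RAW 264.7 macrophages infected with S. Typhimurium sifB::gfp (MOI 30); compound added 2 h post-infection; cells fixed at 18 h; GFP-positive pixel fraction per macrophage imaged by confocal microscopy and expressed as % of DMSO control.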
# 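Also: polymyxin B level opens the outer membrane while sparing the inner membrane, with novobiocin wells as reference growth inhibitor.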
row,SMILES,bacterial growth OD600
1,C=CCO[C@H]1[C@H](NC(=O)COC)c2ccccc2C12CCN(C(=O)/C=C/c1cc(F)ccc1F)CC2,0.492
2,O=C(Nc1cccc(-n2cccn2)c1)C1CCCN1C1Cc2ccccc2C1 (centres undefined),0.004
3,COCCCNc1nc2nonc2nc1NCc1ccc(Cl)s1,0.002
4,COc1ccc(-c2ccc(C(=O)N(Cc3ccncc3)Cc3cccc(OCCc4ccc(F)cc4)c3)o2)cc1,-0.003
5,CN(Cc1ccccc1)C1(C(=O)N2CCC[C@H]2CO)Cc2ccccc2C1,0.526
6,COc1ccc(CCNC(=O)c2oc3ccc(C)cc3c2C)cc1OC,0.42
7,COCCN1C(=O)CC(CC(=O)N2CCCC(COc3ccccc3C)C2)(c2ccccc2F)C1=O (centres undefined),-0.007
8,O=C(NCCC1=CCCCC1)c1coc(COc2ccccc2)n1,0.198
9,COc1ccc(C(=O)N(Cc2ccncc2)Cc2cccc(OCCc3ccc(F)cc3)c2)cc1OC,-0.008
10,CCCCn1c(CN2CCCCC2c2ccc(F)cc2)cnc1S(=O)(=O)CC (centres undefined),0.002
11,Cc1nc(N2CCCCCCC2)ncc1C(C)NCc1ccccc1 (centres undefined),0.004
12,CCCN(CC1CC1)C(=O)CC1(c2ccc(-c3ccccc3)cc2)CC(=O)N(C2CC2)C1=O (centres undefined),-0.01
13,COc1ccc(-c2ccccc2NC(=O)C2CCCN2CCCC(F)(F)F)cc1 (centres undefined),-0.005
14,CCOC(=O)C1(C/C=C/c2ccccc2)CCCN(C(=O)CCn2ccc(C)n2)C1 (centres undefined),0.004
